# Data as given in publication PMC12804701.
# By UniProt entry, the sequences of proteins in these tests, tags left out. Where a name states a change or a piece, a line headed by the entry shows the natural chain unless it says otherwise.
# UniProt P10961: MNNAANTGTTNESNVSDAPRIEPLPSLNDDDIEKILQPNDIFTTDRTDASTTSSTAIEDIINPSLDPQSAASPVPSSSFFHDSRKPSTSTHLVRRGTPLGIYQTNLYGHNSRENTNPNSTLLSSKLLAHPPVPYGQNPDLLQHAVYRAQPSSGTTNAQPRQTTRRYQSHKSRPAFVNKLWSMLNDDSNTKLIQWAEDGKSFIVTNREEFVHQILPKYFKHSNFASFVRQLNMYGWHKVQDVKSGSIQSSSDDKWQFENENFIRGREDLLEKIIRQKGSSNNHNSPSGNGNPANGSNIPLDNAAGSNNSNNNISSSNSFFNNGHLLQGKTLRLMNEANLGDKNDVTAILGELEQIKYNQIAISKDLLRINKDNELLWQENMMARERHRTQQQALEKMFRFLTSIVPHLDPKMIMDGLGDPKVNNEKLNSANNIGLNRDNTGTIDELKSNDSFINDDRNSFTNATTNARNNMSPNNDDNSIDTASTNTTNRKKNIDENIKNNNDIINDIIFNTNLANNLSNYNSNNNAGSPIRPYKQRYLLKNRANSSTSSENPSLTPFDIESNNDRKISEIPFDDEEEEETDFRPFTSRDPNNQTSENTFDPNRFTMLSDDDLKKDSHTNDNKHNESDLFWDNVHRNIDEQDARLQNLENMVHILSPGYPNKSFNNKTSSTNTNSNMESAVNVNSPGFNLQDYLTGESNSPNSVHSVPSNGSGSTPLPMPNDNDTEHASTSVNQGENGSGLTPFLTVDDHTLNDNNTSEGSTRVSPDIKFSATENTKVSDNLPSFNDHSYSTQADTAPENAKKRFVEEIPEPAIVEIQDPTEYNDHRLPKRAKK
# UniProt P10591: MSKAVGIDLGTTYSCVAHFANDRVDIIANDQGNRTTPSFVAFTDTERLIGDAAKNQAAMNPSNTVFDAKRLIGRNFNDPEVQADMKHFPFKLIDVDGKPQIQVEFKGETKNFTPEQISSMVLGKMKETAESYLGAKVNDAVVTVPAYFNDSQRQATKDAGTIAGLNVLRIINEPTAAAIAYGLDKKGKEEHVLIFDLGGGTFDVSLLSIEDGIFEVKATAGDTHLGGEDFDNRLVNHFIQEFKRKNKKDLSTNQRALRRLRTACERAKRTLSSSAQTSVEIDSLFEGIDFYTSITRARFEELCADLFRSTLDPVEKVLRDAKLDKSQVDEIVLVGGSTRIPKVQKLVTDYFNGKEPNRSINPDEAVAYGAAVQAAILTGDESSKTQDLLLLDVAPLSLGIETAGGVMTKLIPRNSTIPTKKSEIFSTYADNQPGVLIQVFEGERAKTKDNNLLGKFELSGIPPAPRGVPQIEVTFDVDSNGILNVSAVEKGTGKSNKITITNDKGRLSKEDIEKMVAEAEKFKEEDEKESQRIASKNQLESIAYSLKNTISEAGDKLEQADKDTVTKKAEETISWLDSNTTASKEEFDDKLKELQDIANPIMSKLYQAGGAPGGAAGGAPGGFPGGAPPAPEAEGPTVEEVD
# No constants are given. Whether binding was seen depends on the method and setting. Binding seen in cells or lysates may run through a third protein. Some entries that bind do so weakly or less than the wild type. For some of these results: Tags and fused reporters may be left off the sequences shown.
# B1: Bck1 (1–738) with an HA tag (domain or fragment, UniProt Q01389 1-738)
# chain: MPFLRKIAGTAHTHSRSDSNSSVKFGHQPTSSVASTKSSSKSPRATSRKSIYDDIRSQFPNLTPNSTSSQFYESTPVIEQSFNWTTDDHISAGTLENPTSFTNSSYKNDNGPSSLSDSRKSSGGNSVNSLSFDKLILSWDPTDPDEWTMHRVTSWFKFHDFPESWILFFKKHQLFGHRFIKLLAYDNFAVYEKYLPQTKTASYTRFQQLLKKTMTKNVTNSHIRQKSASKLKSSRSSSESIKSKLKNSKSQEDISNSRSTSESALSPTKSGPSKTDEKNFLHSTSTHQKTKSASSLYRRSFISLRGSSSSNASSAKSPSNIKLSIPARPHSIIESNSTLTKSASPPASPSYPSIFRRHHKSSSSESSLLNSLFGSGIGEEAPTKPNPQGHSLSSENLAKGKSKHYETNVSSPLKQSSLPTSDDKGNLWNKFKRKSQIGVPSPNTVAYVTSQETPSLKSNSSTATLTVQTADVNIPSPSSSPPPIPKTANRSLEVISTEDTPKISSTTASFKETYPDCINPDKTVPVPVNNQKYSVKNFLLDQKFYPLKKTGLNDSENKYILVTKDNVSFVPLNLKSVAKLSSFKESALTKLGINHKNVTFHMTDFDCDIGAAIPDDTLEFLKKSLFLNTSGKIYIKDQMKLQQKPKPAPLTSENNVPLKSVKSKSSMRSGTSSLIASTDDVSIVTSSSDITSFDEHASGSGRRYPQTPSYYYDRVSNTNPTEELNYWNIKEVLSHEEN
# B2: Bck1 (739–1478) with an HA tag (domain or fragment, UniProt Q01389 739-1478)
# chain: APKMVFKTSPKLELNLPDKGSKLNIPTPITENESKSSFQVLRKDEGTEIDFNHRRESPYTKPELAPKREAPKPPANTSPQRTLSTSKQNKPIRLVRASTKISRSKRSKPLPPQLLSSPIEASSSSPDSLTSSYTPASTHVLIPQPYKGANDVMRRLKTDQDSTSTSPSLKMKQKVNRSNSTVSTSNSIFYSPSPLLKRGNSKRVVSSTSAADIFEENDITFADAPPMFDSDDSDDDSSSSDDIIWSKKKTAPETNNENKKDEKSDNSSTHSDEIFYDSQTQDKMERKMTFRPSPEVVYQNLEKFFPRANLDKPITEGIASPTSPKSLDSLLSPKNVASSRTEPSTPSRPVPPDSSYEFIQDGLNGKNKPLNQAKTPKRTKTIRTIAHEASLARKNSVKLKRQNTKMWGTRMVEVTENHMVSINKAKNSKGEYKEFAWMKGEMIGKGSFGAVYLCLNVTTGEMMAVKQVEVPKYSSQNEAILSTVEALRSEVSTLKDLDHLNIVQYLGFENKNNIYSLFLEYVAGGSVGSLIRMYGRFDEPLIKHLTTQVLKGLAYLHSKGILHRDMKADNLLLDQDGICKISDFGISRKSKDIYSNSDMTMRGTVFWMAPEMVDTKQGYSAKVDIWSLGCIVLEMFAGKRPWSNLEVVAAMFKIGKSKSAPPIPEDTLPLISQIGRNFLDACFEINPEKRPTANELLSHPFSEVNETFNFKSTRLAKFIKSNDKLNSSKLRITSQENKTE
# Experiments:
# [1] = biological target: GFP-Hsf1 (budding yeast) (UniProt P10961); test: co-IP; GFP-Hsf1 purified with GFP-Trap / anti-GFP magnetic beads from lysates of FLAG-WT or T492A yeast (SSA2-promoter or GPD-promoter strains), untreated or heat-shocked; 50 mM Na-phosphate pH 8.0, 300 mM NaCl, 0.01% Tween-20, 4 °C overnight; blot for FLAG and GFP
# [2] = biological target: GFP-Hsf1 (budding yeast) (UniProt P10961); test: co-IP; as a2, FLAG-WT cells after heat shock: GFP-Hsf1 purified with GFP-Trap beads, blot for FLAG
# [3] = biological target: FLAG-tagged Ssa1-T492A (budding yeast) (UniProt P10591); test: co-IP; FLAG-Ssa1 against Bck1-HA fragments in WT and T492A yeast, untreated or heat-shocked; which tag was precipitated is not given
# [4] = biological target: FLAG-tagged Ssa1 (wild type) (budding yeast) (UniProt P10591); test: as above
Molecule,binding [1],binding [2],binding [3],binding [4]
FLAG-tagged Ssa1-T492A (from UniProt P10591 1-642),binds,–,–,–
FLAG-tagged Ssa1 (wild type) (from UniProt P10591 1-642),binds,no binding (condition: after heat shock of the cells),–,–
B1,–,–,binds,binds
B2,–,–,binds,binds
